In patent US20240400691A1 (FBD BIOLOGICS, published 2024):

T1: human TGFβ3 (human, UniProt P10600 301-412)
T1 construct: also called hTGFβ3
T1 sequence (looked up): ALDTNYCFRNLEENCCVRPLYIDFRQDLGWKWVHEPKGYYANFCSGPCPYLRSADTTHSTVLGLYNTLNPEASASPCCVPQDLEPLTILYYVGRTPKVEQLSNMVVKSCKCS


Legend:
[1] = molecular target: T2, human PD-L1 (human, UniProt Q9NZQ7); assay: flow cytometry on PD-L1 tf CHO-S cells, PE goat anti-human IgG; EC50 from the table under the curves
T2 construct: whole, on cells; For the PD-L1 tf DLD1 cells the species of PD-L1 is not restated; also called PD-L1 tf CHO-S; PD-L1 tf DLD1

[2] = molecular target: T2, human PD-L1; assay: flow cytometry on PD-L1 tf DLD1 cells in a 1:1 mixture with DLD1 cells, PE goat anti-human IgG; these cells also bind the anti-CD47 controls (FIGS. 6A-6B), so the CD47 arm may add to the signal [F]
T2 sequence (Q9NZQ7 19-290): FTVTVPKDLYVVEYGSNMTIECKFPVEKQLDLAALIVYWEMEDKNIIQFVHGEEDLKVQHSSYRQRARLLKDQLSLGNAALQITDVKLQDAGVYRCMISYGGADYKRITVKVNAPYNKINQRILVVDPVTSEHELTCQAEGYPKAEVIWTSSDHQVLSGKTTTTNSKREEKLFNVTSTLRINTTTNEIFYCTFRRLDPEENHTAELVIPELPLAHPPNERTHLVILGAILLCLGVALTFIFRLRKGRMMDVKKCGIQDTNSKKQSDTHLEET

[3] = molecular target: T3, human CD47 (human, UniProt Q08722); assay: flow cytometry competition on CD47 tf CHO-S cells against a fixed concentration of biotinylated SIRPα_G4, streptavidin-PE; IC50 from the table under the curves
T3 construct: whole, on cells; also called CD47 tf CHO-S; endogenous CD47 on FaDu and NCI-H460 cells

[4] = molecular target: T3, human CD47; assay: flow cytometry on NCI-H460 cells (endogenous CD47), PE goat anti-human IgG
[5] = molecular target: T4, human TGFβ1 (human, UniProt P01137 fragment); assay: ELISA, plate coated with 0.5 µg/ml human TGFβ1, HRP secondary antibody, OD450
T4 construct: also called hTGFβ1

[6] = molecular target: T3, human CD47; assay: flow cytometry on untransfected DLD1 cells in a 1:1 mixture with PD-L1 tf DLD1 cells; CD47 as the target on DLD1 is inferred from the controls of FIGS. 6A-6E, the filing does not name it [F]
[7] = molecular target: T3, human CD47; assay: flow cytometry on CD47 tf CHO-S cells, PE goat anti-human IgG; EC50 from the table under the curves
[8] = molecular target: T2, human PD-L1; assay: flow cytometry competition on PD-L1 tf CHO-S cells against a fixed concentration of biotinylated PD1_G4, streptavidin-PE; IC50 from the table under the curves
[9] = molecular target: T3, human CD47; assay: flow cytometry on human RBCs (CD47 on RBCs per paragraph 5), PE goat anti-human IgG
[10] = molecular target: T3, human CD47; assay: flow cytometry on untransfected DLD1 cells in a 1:1 mixture with PD-L1 tf DLD1 cells; CD47 as the target on DLD1 is inferred from the controls of FIGS. 6A-6E, the filing does not name it [G]
[11] = molecular target: T1, human TGFβ3; assay: ELISA, plate coated with 0.5 µg/ml human TGFβ3, HRP secondary antibody, OD450
[12] = molecular target: T2, human PD-L1; assay: flow cytometry on PD-L1 tf DLD1 cells in a 1:1 mixture with DLD1 cells, PE goat anti-human IgG; these cells also bind the anti-CD47 controls (FIGS. 6A-6B), so the CD47 arm may add to the signal [G]
[13] = molecular target: T3, human CD47; assay: flow cytometry on untransfected DLD1 cells in a 1:1 mixture with PD-L1 tf DLD1 cells; CD47 as the target on DLD1 is inferred from the controls of FIGS. 6A-6E, the filing does not name it [H]
[14] = molecular target: T2, human PD-L1; assay: flow cytometry on PD-L1 tf DLD1 cells in a 1:1 mixture with DLD1 cells, PE goat anti-human IgG; these cells also bind the anti-CD47 controls (FIGS. 6A-6B), so the CD47 arm may add to the signal [H]

Chain of human TGFβ1 (P01137 279-390 limits assumed): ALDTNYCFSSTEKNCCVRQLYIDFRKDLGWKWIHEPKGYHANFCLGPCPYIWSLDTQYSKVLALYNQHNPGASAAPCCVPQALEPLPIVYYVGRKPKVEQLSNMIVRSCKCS

Binder | EC50 [1] | EC50 (read off the curve) [2] | IC50 [3] | EC50 (read off the curve) [4] | EC50 (read off the curve) [5] | EC50 (read off the curve) [6] | EC50 [7] | IC50 [8] | EC50 (read off the curve) [9] | EC50 (read off the curve) [10] | EC50 (read off the curve) [11] | EC50 (read off the curve) [12] | EC50 (read off the curve) [13] | EC50 (read off the curve) [14] | binding result [11] | binding result [5]
SPT_G4_v5 (Fc fusion, expressed in CHO-S cells; also called HCB301_v5 protein; triple-targeting format) EEELQVIQPDKSVSVAAGESAILTCTVTSLYPVGPIQWFRGAGPARELIYNQKRQTFPRVTTVSESTKRFNMDFSISISNITPADAGTYYCVKFRKGSPDTEFKSGAGTELSVRAKPSGSGGSGGSGGSGGSGGSGQVQLVESGGGVVQPGRSLRLSCAASGGPFMSYAMGWFRQAPGKEREFVAAIRWNGISTFYADSVKGRFTISRDNSKNTLYLQMNSLRAEDTAVYYCAAAQTIVTVPENYHFDYWGQGTQVTVSS[human IgG4 Fc with S228P (EU numbers) not shown]AGGGGSGGGGSGGGGSGGGGSGIPPHVQKSVNNDMIVTDNNGAVKFPQLCKFCDVRFSTCDNQKSCMSNCEITSICEKPQEVCVAVWRKNDENITLETVCHDPKLPYHDFILEDAASPKCIMKEKKKPGETFFMCSCSSEECNDNIIFSEEYNTSNPD | 0.36 nM | ~1 nM | 1.14 nM | ~0.5 nM | ~0.5 nM | ~3 nM | 0.55 nM | 0.664 nM | ~0.7 nM | – | – | – | – | – | – | –
SPT_G1_v5 (Fc fusion, also called HCB301_v5 protein; triple-targeting format) EEELQVIQPDKSVSVAAGESAILTCTVTSLYPVGPIQWFRGAGPARELIYNQKRQTFPRVTTVSESTKRFNMDFSISISNITPADAGTYYCVKFRKGSPDTEFKSGAGTELSVRAKPSGSGGSGGSGGSGGSGGSGQVQLVESGGGVVQPGRSLRLSCAASGGPFMSYAMGWFRQAPGKEREFVAAIRWNGISTFYADSVKGRFTISRDNSKNTLYLQMNSLRAEDTAVYYCAAAQTIVTVPENYHFDYWGQGTQVTVSS[human IgG1 Fc with changes not shown]GGGGSGGGGSGGGGSGGGGSGIPPHVQKSVNNDMIVTDNNGAVKFPQLCKFCDVRFSTCDNQKSCMSNCEITSICEKPQEVCVAVWRKNDENITLETVCHDPKLPYHDFILEDAASPKCIMKEKKKPGETFFMCSCSSEECNDNIIFSEEYNTSNPD | 1.57 nM | – | 1.18 nM | ~0.7 nM | ~0.7 nM | – | 2.44 nM | 0.834 nM | – | ~7 nM | ~1 nM | ~4 nM | – | – | – | –
PST_G1_v5 (Fc fusion, also called HCB301_v5 protein; triple-targeting format) QVQLVESGGGVVQPGRSLRLSCAASGGPFMSYAMGWFRQAPGKEREFVAAIRWNGISTFYADSVKGRFTISRDNSKNTLYLQMNSLRAEDTAVYYCAAAQTIVTVPENYHFDYWGQGTQVTVSSGSGGSGGSGGSGGSGGSGEEELQVIQPDKSVSVAAGESAILTCTVTSLYPVGPIQWFRGAGPARELIYNQKRQTFPRVTTVSESTKRFNMDFSISISNITPADAGTYYCVKFRKGSPDTEFKSGAGTELSVRAKPS[human IgG1 Fc with changes not shown]GGGGSGGGGSGGGGSGGGGSGIPPHVQKSVNNDMIVTDNNGAVKFPQLCKFCDVRFSTCDNQKSCMSNCEITSICEKPQEVCVAVWRKNDENITLETVCHDPKLPYHDFILEDAASPKCIMKEKKKPGETFFMCSCSSEECNDNIIFSEEYNTSNPD | 0.32 nM | – | 1.28 nM | ~0.8 nM | ~1 nM | – | 0.87 nM | 0.364 nM | – | – | ~0.3 nM | – | ~3 nM | ~1 nM | – | –
HCB101 (Fc fusion) EEELQVIQPDKSVSVAAGESAILTCTVTSLYPVGPIQWFRGAGPARELIYNQKRQTFPRVTTVSESTKRFNMDFSISISNITPADAGTYYCVKFRKGSPDTEFKSGAGTELSVRAKPS[human IgG4 Fc with S228P (EU numbers) not shown] | – | – | – | – | – | – | – | – | – | – | – | – | – | – | no binding (tested: 500 nM) | no binding (tested: 500 nM)
